Results taken from the supplement of paper PMC8728848.
The other results are listed elsewhere or left out.

What was measured:
Assay in all cases: glycan array binding signal (z-score within array); higher = stronger binding
Settings in all cases: glycan notation: IUPAC condensed, linker removed
[1] = target: GlcNAc(b1-3)Gal(b1-4)GlcNAc(b1-6)[GlcNAc(b1-3)]Gal(b1-4)GlcNAc
Procedure, shortened: (§1)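 Glycan array data were curated from 3228 arrays in the Consortium for Functional Glycomics database and kept only where the protein sequence was available. Glycan names were converted to IUPAC-condensed notation, and columns mapping to the same glycan were averaged. The binding signal is a within-array Z-score, averaged across arrays of the same protein sequence at different concentrations or buffers and across linkers. Negative Z-scores can be read as non-binding.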

GlcNAc(b1-3)GalNAc = target: GlcNAc(b1-3)GalNAc
Procedure, shortened: as §1

GlcNAc(b1-3)Man = target: GlcNAc(b1-3)Man
Procedure, shortened: as §1

[2] = target: GlcNAc(b1-3)[GlcNAc(b1-4)][GlcNAc(b1-6)]GlcNAc
Procedure, shortened: as §1

[3] = target: GlcNAc(b1-3)[GlcNAc(b1-6)]Gal(b1-4)GlcNAc
Procedure, shortened: as §1

[4] = target: GlcNAc(b1-3)[GlcNAc(b1-6)]GalNAc
Procedure, shortened: as §1

[5] = target: GlcNAc(b1-3)[GlcNAc(b1-6)]GlcNAc(b1-4)GlcNAc
Procedure, shortened: as §1

[6] = target: GlcNAc(b1-4)Gal(b1-4)GlcNAc
Procedure, shortened: as §1

GlcNAc(b1-4)GlcNAc = target: GlcNAc(b1-4)GlcNAc
Procedure, shortened: as §1

[7] = target: GlcNAc(b1-4)GlcNAc(b1-4)GlcNAc
Procedure, shortened: as §1

[8] = target: GlcNAc(b1-4)GlcNAc(b1-4)GlcNAc(b1-4)GlcNAc(b1-4)GlcNAc
Procedure, shortened: as §1

[9] = target: GlcNAc(b1-4)GlcNAc(b1-4)GlcNAc(b1-4)GlcNAc(b1-4)GlcNAc(b1-4)GlcNAc
Procedure, shortened: as §1

[10] = target: GlcNAc(b1-4)[GlcNAc(b1-6)]GalNAc
Procedure, shortened: as §1

[11] = target: GlcNAc(b1-6)Gal(b1-4)GlcNAc
Procedure, shortened: as §1

GlcNAc(b1-6)GalNAc = target: GlcNAc(b1-6)GalNAc
Procedure, shortened: as §1

[12] = target: GlcNAc6S(b1-3)Gal(b1-4)GlcNAc
Procedure, shortened: as §1

Kdn(a2-3)Gal(b1-3)GalNAc = target: Kdn(a2-3)Gal(b1-3)GalNAc
Procedure, shortened: as §1

Kdn(a2-3)Gal(b1-3)GlcNAc = target: Kdn(a2-3)Gal(b1-3)GlcNAc
Procedure, shortened: as §1

Kdn(a2-3)Gal(b1-4)Glc = target: Kdn(a2-3)Gal(b1-4)Glc
Procedure, shortened: as §1

Kdn(a2-3)Gal(b1-4)GlcNAc = target: Kdn(a2-3)Gal(b1-4)GlcNAc
Procedure, shortened: as §1

[13] = target: Kdn(a2-3)Gal(b1-4)[Fuc(a1-3)]GlcNAc
Procedure, shortened: as §1

Kdn(a2-6)Gal(b1-4)GlcNAc = target: Kdn(a2-6)Gal(b1-4)GlcNAc
Procedure, shortened: as §1

[14] = target: Man(a1-2)Man(a1-2)Man(a1-3)Man
Procedure, shortened: as §1

[15] = target: Man(a1-2)Man(a1-2)Man(a1-6)[Man(a1-3)]Man
Procedure, shortened: as §1

Man(a1-2)Man(a1-3)Man = target: Man(a1-2)Man(a1-3)Man
Procedure, shortened: as §1

[16] = target: Man(a1-2)Man(a1-3)[Man(a1-2)Man(a1-6)]Man
Procedure, shortened: as §1

[17] = target: Man(a1-2)Man(a1-3)[Man(a1-2)Man(a1-6)]Man(a1-6)[Man(a1-2)Man(a1-2)Man(a1-3)]Man
Procedure, shortened: as §1

[18] = target: Man(a1-2)Man(a1-3)[Man(a1-2)Man(a1-6)]Man(a1-6)[Man(a1-2)Man(a1-2)Man(a1-3)]Man(b1-4)GlcNAc(b1-4)GlcNAc
Procedure, shortened: as §1

[19] = target: Man(a1-2)Man(a1-3)[Man(a1-6)]Man(a1-6)[Man(a1-2)Man(a1-3)]Man(b1-4)GlcNAc(b1-4)GlcNAc
Procedure, shortened: as §1

[20] = target: Man(a1-2)Man(a1-6)[Man(a1-3)]Man(a1-6)[Man(a1-2)Man(a1-2)Man(a1-3)]Man
Procedure, shortened: as §1

[21] = target: Man(a1-2)Man(a1-6)[Man(a1-3)]Man(a1-6)[Man(a1-2)Man(a1-2)Man(a1-3)]Man(b1-4)GlcNAc(b1-4)GlcNAc
Procedure, shortened: as §1

Man(a1-3)[Man(a1-6)]Man = target: Man(a1-3)[Man(a1-6)]Man
Procedure, shortened: as §1

[22] = target: Man(a1-3)[Man(a1-6)]Man(a1-6)[Man(a1-2)Man(a1-3)]Man(b1-4)GlcNAc(b1-4)GlcNAc
Procedure, shortened: as §1

[23] = target: Man(a1-3)[Man(a1-6)]Man(a1-6)[Man(a1-3)]Man
Procedure, shortened: as §1

[24] = target: Man(a1-3)[Man(a1-6)]Man(a1-6)[Man(a1-3)]Man(b1-4)GlcNAc(b1-4)GlcNAc
Procedure, shortened: as §1

[25] = target: Man(a1-3)[Man(a1-6)]Man(b1-4)GlcNAc(b1-4)GlcNAc
Procedure, shortened: as §1

[26] = target: Man(a1-3)[Man(a1-6)]Man(b1-4)GlcNAc(b1-4)[Fuc(a1-6)]GlcNAc
Procedure, shortened: as §1

B1: GSL-I (Griffonia simplicifolia) (protein)
chain: FNLPNFWSDVKDNIIFQGDANTTAGTLQLCKTNQYGNPLQYRAGRALYSDPVQLWDNKTGSVASFYTEFTFFLKITGDGPADGLAFFLAPPDSDVKDAGAYLGLFNKSTATQPSKNQVVAVEFDTWKNTDFPEPSYRHIGINVNSIVSVATKRWEDSDIFSGKIATARISYDGSAKILTVVLSYPDGADYILSHSVDLSKNLPNPIRVGISASTGANQFLTVYVLSWRFSSALQSTSVNAAMGPEIIRTVV
B1 was tested. Which “glycan array binding signal (z-score)” value [1] did it give?
Its value is -0.255.

What about the “glycan array binding signal (z-score)” value (GlcNAc(b1-3)GalNAc) of the same binder?
Its value is -0.23.

What about the “glycan array binding signal (z-score)” value (GlcNAc(b1-3)Man) of the same binder?
Its value is -0.193.

And the “glycan array binding signal (z-score)” value [2]?
The value was -0.251.

What about the “glycan array binding signal (z-score)” value [3] of the same binder?
Its value is -0.218.

And the “glycan array binding signal (z-score)” value [4]?
The value was -0.21.

What about the “glycan array binding signal (z-score)” value [5] of the same binder?
Its value is -0.32.

What about the “glycan array binding signal (z-score)” value [6] of the same binder?
Its value is -0.258.

What about the “glycan array binding signal (z-score)” value (GlcNAc(b1-4)GlcNAc) of the same binder?
Its value is -0.174.

And the “glycan array binding signal (z-score)” value [7]?
The value was -0.114.

What about the “glycan array binding signal (z-score)” value [8] of the same binder?
The value was 0.002.

What about the “glycan array binding signal (z-score)” value [9] of the same binder?
Its value is -0.165.

What about the “glycan array binding signal (z-score)” value [10] of the same binder?
Its value is -0.229.

And the “glycan array binding signal (z-score)” value [11]?
The value was -0.222.

And the “glycan array binding signal (z-score)” value (GlcNAc(b1-6)GalNAc)?
Its value is -0.241.

What about the “glycan array binding signal (z-score)” value [12] of the same binder?
The value was -0.22.

And the “glycan array binding signal (z-score)” value (Kdn(a2-3)Gal(b1-3)GalNAc)?
The value was -0.069.

What about the “glycan array binding signal (z-score)” value (Kdn(a2-3)Gal(b1-3)GlcNAc) of the same binder?
Its value is -0.169.

And the “glycan array binding signal (z-score)” value (Kdn(a2-3)Gal(b1-4)Glc)?
The value was -0.201.

And the “glycan array binding signal (z-score)” value (Kdn(a2-3)Gal(b1-4)GlcNAc)?
The value was -0.133.

And the “glycan array binding signal (z-score)” value [13]?
Its value is -0.176.

What about the “glycan array binding signal (z-score)” value (Kdn(a2-6)Gal(b1-4)GlcNAc) of the same binder?
The value was -0.152.

What about the “glycan array binding signal (z-score)” value [14] of the same binder?
The value was -0.262.

And the “glycan array binding signal (z-score)” value [15]?
Its value is -0.208.

And the “glycan array binding signal (z-score)” value (Man(a1-2)Man(a1-3)Man)?
Its value is -0.209.

And the “glycan array binding signal (z-score)” value [16]?
Its value is -0.135.

And the “glycan array binding signal (z-score)” value [17]?
The value was 0.069.

What about the “glycan array binding signal (z-score)” value [18] of the same binder?
Its value is -0.033.

And the “glycan array binding signal (z-score)” value [19]?
Its value is -0.203.

What about the “glycan array binding signal (z-score)” value [20] of the same binder?
The value was -0.13.

What about the “glycan array binding signal (z-score)” value [21] of the same binder?
Its value is -0.302.

What about the “glycan array binding signal (z-score)” value (Man(a1-3)[Man(a1-6)]Man) of the same binder?
Its value is -0.245.

And the “glycan array binding signal (z-score)” value [22]?
The value was 0.411.

What about the “glycan array binding signal (z-score)” value [23] of the same binder?
Its value is -0.11.

And the “glycan array binding signal (z-score)” value [24]?
Its value is -0.232.

And the “glycan array binding signal (z-score)” value [25]?
Its value is -0.151.

And the “glycan array binding signal (z-score)” value [26]?
The value was -0.305.
